Data reported in the RNAGym collection of RNA variant scans (doi:10.7554/elife.90254).
The source gives no read counts; variants with many changes may rest on few reads.

B1: OR4K15 (parent)
chain: GUUAACGGUCAUAGGCCAUGGAAACUAGGAGCACCAUUUCGCUGCCAGUGAAGAAAUGAACAAAGAAAAUCUGGGCCAGGCAGGCAUCAAAAGAAAUAGUCUUGCGCUCAACCAGAAAGUCUGUAAUCAUUUUAAGGGUA

Variants of: B1
Experiment: self-cleavage, relative activity (ratio to wild type); higher = more cleavage; in vitro, sequencing; the parent is a self-cleaving ribozyme

| Variant | self-cleavage |
| --- | --- |
| GUUAACGGUCAUAGGCCAUGGAAACUAGGAGCACCAUUUCGCUGCCAGUGAAGAAAUGAACAAAGAAAAUCUGGUCCAGGCAGGCAUCAAAAGGUGUAGUCUUGCGCUCAACCAGAAAGUCUGUAAUCAUUUUAAGGGUG [G75U A94G A95U A96G A140G] | 0.06 |
| GUUAACGGUCAUAGGCCAUGGAAACUAGGAGCACCAUUUCGCUGCCAGUGAAGAAAUGAACAAAGAAAAUCUGGGACAGGCAGGCAUCAAAAGGAAUAGUCUCGCGCUCAACCAGAAAGUCUGUAAUCAGUUUAAGGGUA [C76A A94G U103C U130G] | 0.02 |
| GUUAACGGUCAUAGGCCAUGGAAACUAGGAGCACCAUUUCGCUGCCAGUGAAGAAAUGAACAAAGAAAAUCUGGGCAAGGCAGGCAUCAAAAGAGAUAGUCUCGCGCUCAACCAGAAAGUCUGUAAUCAUUUUAAGGGUA [C77A A95G U103C] | 0.82 |
| GUUAACGGUCAUAGGCCAUGGAAACUAGGAGCACCAUUUCGCUGCCAGUGAAGAAAUGAACAAAGAAAAUCUGGGCUGGGCAGGCAUCAAAGGAAAUAGUCUUGCGCUCAACCAGAAAGCCUGUAAUCAUUUUAAGGGUA [C77U A78G A92G U120C] | 0.2 |
| GUUAACGGUCAUAGGCCAUGGAAACUAGGAGCACCAUUUCGCUGCCAGUGAAGAAAUGAACAAAGAAAAUCUGGGCCGGGCAGGCGUCAAAAGAAAUAGUCUUGCGCUCAACCAGAAAGUCUGUAAUCGUUUUAAGGGUA [A78G A86G A129G] | 0.23 |
| GUUAACGGUCAUAGGCCAUGGAAACUAGGAGCACCAUUUCGCUGCCAGUGAAGAAAUGAACAAAGAAAAUCUGGGCCCGGCAGGCAUCAAGAGAAAUAGCCUUGCGCUCAACCAGAAAGUCUGUAAUCAUUUUAAGGGUA [A78C A91G U100C] | 0.3 |
| GUUAACGGUCAUAGGCCAUGGAAACUAGGAGCACCAUUUCGCUGCCAGUGAAGAAAUGAACAAAGAAAAUCUGGCCCAGGCGGGCAUCAGAAGAAAUAGUCUUGCGCUCAACCAGAAAGUCUGUAAUCAUUUUAAGGGUA [G75C A82G A90G] | 0.23 |
| GUUAACGGUCAUAGGCCAUGGAAACUAGGAGCACCAUUUCGCUGCCAGUGAAGAAAUGAACAAAGAAAAUCUGGACCAGGCGGGCAUCAAAAGAAAUAGUCUUGCGCUCAACCAGAAAGCCUGUAAUCAUUUUAAGGGUA [G75A A82G U120C] | 0.1 |
| GUUAACGGUCAUAGGCCAUGGAAACUAGGAGCACCAUUUCGCUGCCAGUGAAGAAAUGAACAAAGAAAAUCUGGCCCAGGCAGGCAUCAAAAGAAAUAGUCUUGCGCUCAACCAGAAAGUCUGUAAUCGUUUUAAGGGUG [G75C A129G A140G] | 0.04 |
| GUUAACGGUCAUAGGCCAUGGAAACUAGGAGCACCAUUUCGCUGCCAGUGAAGAAAUGAACAAAGAAAAUCUGGACCAGGCUGGCAUCCAAAGAAAUAGUCUUGCGCUCAACCAGAAAGUCUGUAAUCAUUUUAAGGGUA [G75A A82U A89C] | 0.18 |
| GUUAACGGUCAUAGGCCAUGGAAACUAGGAGCACCAUUUCGCUGCCAGUGAAGAAAUGAACAAAGAAAAUCUGUGCCAGGCAGGCAUCAAAAGAAAUAGCCUUGCGCCCAACCAGAAAGUCUGUAAUCAUUUUAAGGGUA [G74U U100C U108C] | 0 |
| GUUAACGGUCAUAGGCCAUGGAAACUAGGAGCACCAUUUCGCUGCCAGUGAAGAAAUGAACAAAGAAAAUCUGGGCUAGGCAGGCAUCAAAAGAAAUAGUCUCGCGCUCAACCAGAAAGUCUGUAAUCAUUUUGAGGGUA [C77U U103C A134G] | 2.92 |
| GUUAACGGUCAUAGGCCAUGGAAACUAGGAGCACCAUUUCGCUGCCAGUGAAGAAAUGAACAAAGAAAAUCUGGCCCAGGCAGGCAUCCAAAGGAAUAGUCUUGCGCUCAACCAGAAAGUCUGUAAUCCUUUUAAGGGUA [G75C A89C A94G A129C] | 0.1 |
| GUUAACGGUCAUAGGCCAUGGAAACUAGGAGCACCAUUUCGCUGCCAGUGAAGAAAUGAACAAAGAAAAUCUGGGCUAGGCAGGCGUCAAAAGAAAUAGUCUUGCGCUCAACCGGAAAGUCUGUAAUCAUUUUAAGGGUA [C77U A86G A114G] | 1.02 |
| GUUAACGGUCAUAGGCCAUGGAAACUAGGAGCACCAUUUCGCUGCCAGUGAAGAAAUGAACAAAGAAAAUCUGGCCCAGGCAGGCAUCAAAAGAAAUAGUCUUGCGCUCAACCAGAAAGCCAGUAAUCAUUUUAAGGGUA [G75C U120C U122A] | 0.05 |
| GUUAACGGUCAUAGGCCAUGGAAACUAGGAGCACCAUUUCGCUGCCAGUGAAGAAAUGAACAAAGAAAAUCUGGGUCAGGCAGGCACCAAAAGAAAUAGUCUUGCGCUCAACCAGAAAGUCUGUAGUCAUUUUAGGGGAA [C76U U87C A126G A135G U139A] | 0.05 |
| GUUAACGGUCAUAGGCCAUGGAAACUAGGAGCACCAUUUCGCUGCCAGUGAAGAAAUGAACAAAGAAAAUCUGGGUCAGGCAGGCAUCAAAAGAAAUAGUCUUGCGCUCAACCAGAGGGUCUGUAAUCAUUUUAAGGGUA [C76U A117G A118G] | 0.04 |
| GUUAACGGUCAUAGGCCAUGGAAACUAGGAGCACCAUUUCGCUGCCAGUGAAGAAAUGAACAAAGAAAAUCUGGACCAGGCAGGCAUCAAAAGAAAUAGUCUUGCGCUCAGCCAGAUAGUCUGUAAUCAUUUUAAGGGUA [G75A A111G A117U] | 0.01 |
| GUUAACGGUCAUAGGCCAUGGAAACUAGGAGCACCAUUUCGCUGCCAGUGAAGAAAUGAACAAAGAAAAUCUGGGCCCGGCAGGCAUCAAAAGAAAUAGUCUUGCGCUCAACCAGAAAGUCUGCAAUCGUUUUAAGGGUA [A78C U124C A129G] | 0.12 |
| GUUAACGGUCAUAGGCCAUGGAAACUAGGAGCACCAUUUCGCUGCCAGUGAAGAAAUGAACAAAGAAAAUCUGGGCAAGGCAGGCAUCAAAAGGAAUAGUCUUGCGCUCAACCGGAAAGACUGUAAUCAUUUUAAGGGUA [C77A A94G A114G U120A] | 0.19 |
| GUUAACGGUCAUAGGCCAUGGAAACUAGGAGCACCAUUUCGCUGCCAGUGAAGAAAUGAACAAAGAAAAUCUGGCCCAGGCAGGCAUCAAAAGAAAUAGUCCAGCGCUCAACCAGAAAGUCUGUAAUCAUUUUAAGGGUA [G75C U102C U103A] | 0.01 |
